In PMC8080847, “Analysis of transient membrane protein interactions by single-molecule diffusional mobility shift assay” (Experimental & Molecular Medicine, 2021):
One block for each binder: values may come before it.

Biological target: T1, EGFR on human cancer cell lines (human (endogenous in A431, A549, …, UniProt P00533))
T1 construct: EGFR, the bait on the plasma membrane of the cancer cell lines; Labelled with the Alexa Fluor 647 Fab of the anti-EGFR antibody (a tool); source: endogenous, on living A431, A549, NCI-H508, Caco-2, Skbr3 and Skov3 cells
Assay: single-molecule diffusional mobility shift assay (smDIMSA); average of the diffusion coefficient shifts over the cancer cell lines; EGFR as bait, each receptor as prey with an antibody targeting the prey
Details: partners not purified

average diffusion coefficient shift in cancer cell lines: 11.1%
B1: CD44 on human cancer cell lines (receptor)
chain: [about 200 residues not listed]ATTLMSTSATATETATKRQETWDWFSWLFLPSESKNHLHTTTQMAGTSSNTISAGWEPNEENEDERDRHLSFSGSGIDDDEDFISSTISTTPRAFDHTKQNQDWTQWNPSHSNPEVLLQTTTRMTDVDRNGTTAYEGNWNPEAHPPLIHHEHHEEEETPHSTSTIQATPSSTTEETATQKEQWFGNRWHEGYRQTPKEDSHSTTGTAAASAHTSHPMQGRTTPSPEDSSWTDFFNPISHPMGRGHQAGRRMDMDSSHSITLQPTANPNTGLVEDLDRTGPLSMTTQQSNSQSFSTSHEGLEEDKDHPTTSTLTSSNRNDVTGGRRDPNHSEGSTTLLEGYTSHYPHTKESRTFIPVTSAKTGSFGVTAVTVGDSNSNVNRSLSGDQDTFHPSGGSHTTHGSESDGHSHGSQEGGANTTSGPIRTPQIPEWLIILASLLALALILAVCIAVNSRRRCGQKKKLVINSGNGAVEDRKPSGLNGEASKSQEMVHLVNKESSETPDQFMTADETRNLQNVDMKIGV
notes: CD44, prey on the plasma membrane of the cancer cell lines

average diffusion coefficient shift in cancer cell lines: 10.2%
B2: integrin5a on human cancer cell lines (receptor)
chain: not shown
notes: prey on the plasma membrane of the cancer cell lines
